Whole data set: some 2,800 compounds, median “cell viability relative to vehicle” near 1.1, cut for the lowest 2% near 0.19. This is one part of the list.
system: NCI-H2228 parental; assay: cell viability relative to vehicle (fraction of vehicle); NCI-H2228 is an ALK-positive lung cancer line and DTP means drug-tolerant persister; higher = less growth inhibition; conditions: 100 nM; treatment time 6 days
Outline: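 Each value is viability relative to vehicle-treated cells, measured as ATP with the CellTiter-Glo 3D Cell Viability Assay. Parental NCI-H2228 cells and drug-tolerant persisters (1000 nM targeted drug, 13 days) in 384-well plates received the 3114-agent TargetMol anti-cancer compound library at 100 nM, or DMSO, and were read 6 days later.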

Row | Compound | cell viability
1 | COc1cc(N2CCOCC2)ccc1Nc1ncc(F)c(Nc2ccccc2NS(C)(=O)=O)n1 | 0.855
2 | N[C@@H](Cc1cc(I)c(Oc2ccc(O)c(I)c2)c(I)c1)C(=O)O [O-(4-Hydroxy-3-iodophenyl)-3,5-diiodo-L-tyrosine] | 1.15
3 | N[C@@H](Cc1cc(I)c(Oc2ccc(O)c(I)c2)c(I)c1)C(=O)O [Liothyronine sodium] | 1.07
4 | CCN1CCN(Cc2ccc(C(=O)Nc3ccc(C)c(Oc4ccc5c(c4)CC(=O)N5)c3)cc2C(F)(F)F)CC1 | 1.1
5 | CNc1nc(-c2cccc(NC(=O)c3ccc(C(=O)OC)cc3)c2)c2cc(OC)c(OC)cc2n1 [Lotamilast] | 0.999
6 | Nc1c2ccccc2nc2ccccc12 [Aminacrine] | 1.04
7 | N#Cc1cc2cc(CN3CCC(Nc4ncnc5sc(CC(F)(F)F)cc45)CC3)ccc2[nH]1 | 1.12
8 | Cc1ccc(=O)n(-c2ccccc2)c1 [Pirfenidone] | 0.888
9 | C[C@@H](O[C@H]1OCCN(Cc2n[nH]c(=O)[nH]2)[C@H]1c1ccc(F)cc1)c1cc(C(F)(F)F)cc(C(F)(F)F)c1 [Aprepitant] | 0.985
10 | Cc1cn(-c2cc(NC(=O)c3ccc(C)c(Nc4nccc(-c5cccnc5)n4)c3)cc(C(F)(F)F)c2)cn1 [Nilotinib] | 1.26
11 | NC(=O)c1ccc(-c2nc(-c3ccccn3)c(-c3ccc4c(c3)OCO4)[nH]2)cc1 | 1.31
12 | CCCNC(=O)Nc1ccc(Oc2ncnc3cc(OC)c(OC)cc23)cc1Cl | 1.08
13 | COC1=CC(=O)c2ccccc2C1=O [2-Methoxynaphthoquinone] | 1.04
14 | CS(=O)(=O)c1cccc(C[C@H](NC(=O)c2c(Cl)cc3c(c2Cl)CCN(C(=O)c2ccc4ccoc4c2)C3)C(=O)O)c1 [Lifitegrast] | 1.17
15 | CC(=O)c1c(C)c2cnc(Nc3ccc(N4CCNCC4)cn3)nc2n(C2CCCC2)c1=O [Palbociclib Isethionate] | 1.11
16 | CC(=O)c1c(C)c2cnc(Nc3ccc(N4CCNCC4)cn3)nc2n(C2CCCC2)c1=O [Palbociclib] | 0.869
17 | COc1ccc(/C(C#N)=C/c2ccc(N3CCC(O)CC3)s2)cc1OC | 1.07
18 | COc1ccc(-c2nc(-c3cc(C(F)(F)F)cc(C(F)(F)F)c3)n(Cc3ccc(C(N)=O)cc3)c2-c2ccc(OC)cc2)cc1 [Apoptozole] | 0.945
19 | COc1ccc2cc(C(C)C(=O)Oc3ccc(C(N)=S)cc3)ccc2c1 (configuration not stated) | 1.09
20 | COc1nccnc1NS(=O)(=O)c1ccc(N)cc1 [Sulfalen] | 1.17
21 | CC(C)(C)c1ccc(S(=O)(=O)/C=C/C#N)cc1 | 1.09
22 | N#CCC(=O)NN [Cyanoacetohydrazide] | 1.23
